The antibiotic and cytotoxicity screens of Wong et al. (2023)
This is one part of the list.

These molecules were tested on HSkMC (human skeletal muscle cells) (assay: cytotoxicity call (relative viability < 0.9)). Settings: 10 µM.

How did the cytotoxicity call turn out when `O=C(C[C@@H]1CC[C@H]2[C@@H](COC[C@H](O)CN2S(=O)(=O)c2ccccc2)O1)NCCN1CCCC1` was run?
Its cytotoxicity call is “inactive”.

For `Cc1ccc(S(=O)(=O)N(C)C[C@@H]2Oc3cc(C#Cc4ccncc4)ccc3S(=O)(=O)N([C@H](C)CO)C[C@H]2C)cc1`, which cytotoxicity call is on record?
The cytotoxicity call was “inactive”.

How did the cytotoxicity call turn out when `C[C@@H]1CCCCO[C@H](CN(C)C(=O)NC2CCCCC2)[C@@H](C)CN([C@H](C)CO)C(=O)c2cc(NC(=O)CCC(F)(F)F)ccc2O1` was run?
Its cytotoxicity call is “inactive”.

How did the cytotoxicity call turn out when `C[C@@H]1CN([C@H](C)CO)C(=O)c2cc(NC(=O)c3ccccc3)ccc2O[C@@H](C)CCCCO[C@H]1CN(C)S(=O)(=O)c1ccccc1` was run?
The cytotoxicity call was “inactive”.

How did the cytotoxicity call turn out when `CC1CC2C3CCC4=CC(=O)C=CC4(C)C3(F)C(O)CC2(C)C1C(=O)CO` (stereo not given) was run?
Its cytotoxicity call is “inactive”.

With `C[C@H](CO)N1C[C@H](C)[C@H](CN(C)C(=O)Nc2cccc3ccccc23)OCCCC[C@H](C)Oc2ccc(NC(=O)c3ccncc3)cc2C1=O` as the molecule, how does the cytotoxicity call read?
Its cytotoxicity call is “inactive”.

Which cytotoxicity call does the source give for `C[C@@H]1CN([C@H](C)CO)C(=O)Cc2cc(NC(=O)Nc3ccc4c(c3)OCO4)ccc2O[C@H]1CN(C)Cc1ccc(C(F)(F)F)cc1` here?
Its cytotoxicity call is “active”.

How did the cytotoxicity call turn out when `Cc1noc(C)c1NC(=O)N(C)C[C@@H]1OCCCC[C@H](C)Oc2ccc(NC(=O)c3ccccc3)cc2C(=O)N([C@@H](C)CO)C[C@H]1C` was run?
The cytotoxicity call was “inactive”.

`CCc1nc2ccc(C(=O)N3CCN(S(=O)(=O)CC)CC3)cn2c1N(CCC(C)C)CCN(C)C` was tested. Which cytotoxicity call did it give?
The cytotoxicity call was “inactive”.

For `C[C@H](CO)N1C[C@H](C)[C@H](CN(C)S(=O)(=O)c2ccc(Oc3ccccc3)nc2)OCc2cn(nn2)CCCC1=O`, which cytotoxicity call is on record?
Its cytotoxicity call is “inactive”.
